Measurements reported in publication PMC5069779.
No constants are given. Whether binding was seen depends on the method and setting. In cells and extracts the contact can be indirect. Some binding calls cover weakened binding; strength is not graded here. For part of these data: Where a sequence is shown, tags or fusion partners need not be part of it. Each block holds one molecule with its values, some of them ahead of it.

By UniProt entry, the sequences of proteins in these tests, tags left out.
UniProt Q13153: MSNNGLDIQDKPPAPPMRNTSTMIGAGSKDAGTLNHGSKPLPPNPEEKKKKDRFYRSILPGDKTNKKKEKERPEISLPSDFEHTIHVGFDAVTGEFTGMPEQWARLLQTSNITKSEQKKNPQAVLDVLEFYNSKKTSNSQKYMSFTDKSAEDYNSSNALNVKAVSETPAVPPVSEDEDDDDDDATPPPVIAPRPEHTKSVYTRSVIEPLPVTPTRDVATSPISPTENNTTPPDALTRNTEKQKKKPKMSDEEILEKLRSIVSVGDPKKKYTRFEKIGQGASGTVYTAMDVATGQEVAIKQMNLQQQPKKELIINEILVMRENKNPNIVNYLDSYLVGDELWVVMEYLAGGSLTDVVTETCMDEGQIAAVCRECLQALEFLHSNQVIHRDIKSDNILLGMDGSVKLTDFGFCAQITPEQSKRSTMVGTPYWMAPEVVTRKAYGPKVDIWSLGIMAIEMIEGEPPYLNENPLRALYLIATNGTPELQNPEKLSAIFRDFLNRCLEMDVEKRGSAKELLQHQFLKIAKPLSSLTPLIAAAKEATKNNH

Experiments:
[1] = molecular target: T1, HA-tagged MIIP (1-283), C-terminal deletion (human) (UniProt Q5JXC2); assay: co-IP; anti-HA immunoprecipitation from HEC1B cells transfected for 24 h with HA-tagged wild-type or truncated MIIP; blot for PAK1 and HA
T1 sequence: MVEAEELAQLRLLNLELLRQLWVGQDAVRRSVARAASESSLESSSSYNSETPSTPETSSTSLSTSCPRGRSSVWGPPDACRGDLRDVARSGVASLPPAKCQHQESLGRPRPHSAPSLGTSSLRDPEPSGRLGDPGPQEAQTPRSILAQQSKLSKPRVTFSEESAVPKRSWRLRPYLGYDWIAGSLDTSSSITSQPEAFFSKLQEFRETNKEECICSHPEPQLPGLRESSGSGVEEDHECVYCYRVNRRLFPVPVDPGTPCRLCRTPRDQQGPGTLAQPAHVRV

[2] = molecular target: T2, HA-tagged MIIP (1-313), C-terminal deletion (human) (UniProt Q5JXC2); assay: as above
T2 sequence: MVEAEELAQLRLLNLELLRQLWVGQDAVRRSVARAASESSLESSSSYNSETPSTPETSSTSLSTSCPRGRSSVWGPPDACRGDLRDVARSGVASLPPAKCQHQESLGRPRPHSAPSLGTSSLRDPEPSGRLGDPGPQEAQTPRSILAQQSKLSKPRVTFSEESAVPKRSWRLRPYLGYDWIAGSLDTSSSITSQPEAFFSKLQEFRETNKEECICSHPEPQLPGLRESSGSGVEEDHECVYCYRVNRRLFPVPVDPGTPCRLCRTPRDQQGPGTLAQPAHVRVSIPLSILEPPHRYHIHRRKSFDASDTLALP

[3] = molecular target: T3, HA-tagged wild-type MIIP (human) (UniProt Q5JXC2); assay: as above
T3 sequence: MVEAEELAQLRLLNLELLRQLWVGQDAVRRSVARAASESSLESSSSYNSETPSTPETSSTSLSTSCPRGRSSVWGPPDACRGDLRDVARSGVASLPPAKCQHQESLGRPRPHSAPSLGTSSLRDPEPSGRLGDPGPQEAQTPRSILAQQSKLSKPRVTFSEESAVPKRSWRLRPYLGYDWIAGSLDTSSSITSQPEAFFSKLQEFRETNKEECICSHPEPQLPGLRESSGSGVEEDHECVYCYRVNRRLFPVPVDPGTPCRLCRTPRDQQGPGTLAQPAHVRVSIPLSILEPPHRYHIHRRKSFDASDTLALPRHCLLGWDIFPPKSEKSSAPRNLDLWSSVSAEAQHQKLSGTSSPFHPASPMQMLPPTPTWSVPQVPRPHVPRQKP

[4] = molecular target: T4, HA-tagged MIIP (1-360), C-terminal deletion (human) (UniProt Q5JXC2); assay: as above
T4 sequence: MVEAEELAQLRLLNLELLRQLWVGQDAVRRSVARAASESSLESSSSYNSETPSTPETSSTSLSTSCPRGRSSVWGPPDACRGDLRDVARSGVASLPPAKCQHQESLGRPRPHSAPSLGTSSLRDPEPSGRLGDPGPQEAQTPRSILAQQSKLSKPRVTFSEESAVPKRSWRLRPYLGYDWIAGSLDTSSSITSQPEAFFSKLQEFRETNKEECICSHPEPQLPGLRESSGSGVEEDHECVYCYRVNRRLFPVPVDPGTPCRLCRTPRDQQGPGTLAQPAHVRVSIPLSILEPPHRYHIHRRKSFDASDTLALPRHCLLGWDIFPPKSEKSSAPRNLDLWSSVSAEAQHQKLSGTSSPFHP

[5] = molecular target: T5, Migration and invasion inhibitory protein (MIIP) expressed from adenovirus (Ad-MIIP) in HEC1B cells (human) (UniProt Q5JXC2); assay: co-IP; anti-MIIP antibody, total proteins from MIIP-overexpressing HEC1B cells; blot for PAK1
T5 sequence: T3 sequence

[6] = molecular target: Endogenous PAK1 (p21-activating kinase 1) (human (endogenous in HEC1B and HEC1A)) (UniProt Q13153); assay: co-IP; reverse co-IP with anti-PAK1 antibody, total proteins from HEC1A cells, both endogenous; blot for MIIP

binding [1]: no binding
binding [2]: no binding
binding [3]: binds
binding [4]: no binding
binding [5]: binds
Molecule: Endogenous PAK1 (p21-activating kinase 1) (from UniProt Q13153 1-545)

binding [6]: binds
B1: Endogenous MIIP of HEC1A cells (protein, UniProt Q5JXC2 1-388)
chain: T3 sequence
